This series deals with ATP. Description: switch fluorescence ratio, 500 uM ATP over buffer (Cy3 cluster intensity, sum of 5 cycles each) (fold (ratio)); higher = stronger signal-on switching upon ATP binding; sequences stand for … in TCGTCGGCAGCGTCAGATGTGTATAAGAGACAGTTTTTTTTTTTTTTTTTTTTTTTTT…TC. The note with it: aptamer strand: ATP DNA aptamer (quencher-CACCTGGGGGAGTATTGCGGAGGAAGG + anchor), 100 nM annealed; ATP concentration: 500 uM; one replicate. Summed up:
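Between each of five buffer/ATP cycles, the flow-cell was stripped with NaOH and re-annealed. Each cycle imaged Cy3-labelled switching-strand clusters, annealed to 100 nM quencher-labelled ATP aptamer on a modified Illumina MiSeq flow-cell, first in selection buffer and then after 15 min with 500 uM ATP at 22 °C. The fluorescence ratio is summed target-cycle over summed buffer-cycle Cy3 intensity per cluster, averaged per switch-domain sequence, with clusters outside 100-1000 RFU excluded.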

In the supplement of paper PMC10126150 one finds switch fluorescence ratio data, which are given here for 67 sequences.

Values marked as one replicate rest on one cluster of the flow cell; about a third of the high ones do not repeat.
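Also: ATP exposure 15 min at 22 °C before imaging.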

GGCCTACCTG: the switch fluorescence ratio is 1.06.
For the sequence AGTTAGTGTT, the switch fluorescence ratio worked out at 0.994.
Take CCTAATCA: the switch fluorescence ratio was 1.06.
On to GTTGCCCTAT, for which the switch fluorescence ratio was 0.984.
AGCATGGGCA: the switch fluorescence ratio was 0.986.
For GCTCTGAACA, the switch fluorescence ratio is 1.01.
As to AATTAATTCG, the switch fluorescence ratio worked out at 1.01.
Regarding AGGGCAGCCG, the switch fluorescence ratio amounted to 1.08.
Next, AACGTGCTGC: 1.06; AATTCAGAGA: 0.987.
Consider GTGCCGGGGA, for which the switch fluorescence ratio is 0.998.
Consider CTGTGTCTAT, for which the switch fluorescence ratio worked out at 1.
On to ACCTTACGTG, for which the switch fluorescence ratio turned out to be 1.48.
On to AAATTAGCCT, for which the switch fluorescence ratio was found to be 1.14.
For GCCTGCTTGA, the switch fluorescence ratio is 0.977.
Take AATAGCAGAT: the switch fluorescence ratio was 0.999.
As to TTGTAAGTAC, the switch fluorescence ratio was determined as 1.7.
Regarding CTCGGCCAGA, the switch fluorescence ratio was found to be 1.1.
For GCAGGTCCCT, the switch fluorescence ratio worked out at 1.03.
As to CAGTGGACCA, the switch fluorescence ratio was 0.996.
Regarding TTGGAACAAT, the switch fluorescence ratio was determined as 2.5.
On to GCACTATTGA, for which the switch fluorescence ratio is 1.01.
In the case of GGCTCTCATG, the switch fluorescence ratio is 0.989.
On to CGCGGGCAGA, for which the switch fluorescence ratio amounted to 1.04.
For the sequence ACCACCAAGA, the switch fluorescence ratio was found to be 1.09.
GCGGCCAGG: the switch fluorescence ratio is 1.26.
As to GCGCTCGGTG, the switch fluorescence ratio was determined as 1.03.
On to TGGCCGGAGC, for which the switch fluorescence ratio came out at 1.1.
Consider TGGTAGAGTC, for which the switch fluorescence ratio was found to be 0.995.
Take ACTTGTTCGG: the switch fluorescence ratio was 1.
As to CTAGCGAGAA, the switch fluorescence ratio was 1.08.
Next, TCATACAACG: 1.1; ACAATGATGT: 0.96.
On to CGAATGTGTT, for which the switch fluorescence ratio turned out to be 0.966.
GTTCACTAAC: the switch fluorescence ratio is 1.06.
Consider TGTATGCTAC, for which the switch fluorescence ratio was 1.08.
Take ATTAGTCACG: the switch fluorescence ratio amounted to 1.04.
Next, GTTTAGAAAT: 0.975.
Turning to TTTAGAATGG, the switch fluorescence ratio amounted to 0.975.
With TCATTCGACT, the switch fluorescence ratio is 1.03.
Take CGGACTGGCA: the switch fluorescence ratio was determined as 1.03.
To AAGAGTTAC belongs 1.01; to GACATTTGTC, 1.01.
Next, CCTGTCATGG: 1.07.
Take GGACCATTAG: the switch fluorescence ratio is 1.01.
For the sequence CGTCCTAGCG, the switch fluorescence ratio was found to be 1.02.
To ATGAGATCG belongs 1.02.
Next, TAGACCCTTT: 0.968; GGCTGCCAGG: 1.03.
With GTTGTCGCGT, the switch fluorescence ratio worked out at 0.987.
To TTAGAGCTCT belongs 1; to AGTCTACGGC, 0.956; to CGTATCTTA, 0.964.
On to ATTGTACCAT, for which the switch fluorescence ratio was determined as 1.03.
Take ACATTTATA: the switch fluorescence ratio turned out to be 0.979.
Regarding GTTCGATTTC, the switch fluorescence ratio came to 0.965.
Consider GTAGGCCCTA, for which the switch fluorescence ratio was 0.996.
Next, ATGTTGTCAC: 1.01.
Next, CATGGGTCTC: 1.
Consider GGGATGTATG, for which the switch fluorescence ratio amounted to 1.01.
To AAGTGTAGGG belongs 1.04; to GATGTTGTAA, 1.08.
In the case of AAGCAGGGCC, the switch fluorescence ratio came out at 1.02.
To TACCCGGTAT belongs 0.998.
In the case of CATCATAACT, the switch fluorescence ratio was 1.
Turning to GGGGTCTGGC, the switch fluorescence ratio was 0.992.
As for GTGAGAAGTA, the switch fluorescence ratio turned out to be 0.966.
